Measured values: the supplement of paper PMC3334620
The full ranking holds about 33,000 sequences; the median of “E-score (-0.5 to 0.5)” is about -0.013, and the highest 2% start at about 0.3. Some of the results follow.

Each sequence was assayed against T1, Msn1 (UniProt P22148) (assay: PBM E-score (8-mer binding enrichment) (E-score (-0.5 to 0.5)); higher = stronger / more preferred TF binding; most listed sequences are background and not binding sites). Conditions: protein concentration: 200 nM; construct: GST-full length.
T1 sequence: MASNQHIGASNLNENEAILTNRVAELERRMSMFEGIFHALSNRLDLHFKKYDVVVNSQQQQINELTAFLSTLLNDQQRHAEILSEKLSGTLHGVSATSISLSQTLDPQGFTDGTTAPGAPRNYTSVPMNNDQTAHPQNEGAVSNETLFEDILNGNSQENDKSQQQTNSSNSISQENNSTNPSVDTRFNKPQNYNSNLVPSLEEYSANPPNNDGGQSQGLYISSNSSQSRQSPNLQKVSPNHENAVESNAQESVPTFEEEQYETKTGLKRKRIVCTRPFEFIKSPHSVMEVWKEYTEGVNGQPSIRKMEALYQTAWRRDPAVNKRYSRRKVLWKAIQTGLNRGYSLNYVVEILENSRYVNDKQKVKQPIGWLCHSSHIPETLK
Method: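 Universal 'all 10-mer' protein binding microarrays (Agilent AMADID 015681) probed with GST-tagged S. cerevisiae TFs (full-length or DBD) made by in vitro transcription/translation (PURExpress), about 100-200 nM. Bound TF was detected with fluorescent anti-GST. Each ungapped 8-mer (which stands for itself and its reverse complement) is scored by the PBM enrichment score (E-score), a modified Wilcoxon-Mann-Whitney statistic from -0.5 to +0.5, computed with the Universal PBM Analysis Suite. Scale: above 0.35 generally sequence-specific binding.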

Sequence | PBM E-score
CACATAGC | -0.0496
CCAGTACC | 0.0169
GAGTAGTA | -0.0474
CCTACCCG | -0.122
AATCCGCG | -0.0338
CGATCGAA | 0.019
ATGGCGCA | -0.0464
ACTATTTA | 0.148
ACAGATCG | -0.0258
CTGCACGC | -0.253
AAGCCTAG | -0.0264
ATCTGTTG | -0.0313
TGAGACCA | -0.0631
CACGTTAA | 0.0389
AGCTGCGG | -0.201
GCGCTATA | -0.036
CTTAACAA | 0.18
GAAACCCA | 0.111
AGTCCCGG | -0.0481
AAAGCTCA | -0.113
AGACAATC | 0.359
AGGATGAA | -0.174
ATGGGCAC | -0.0088
GAGCGGGC | -0.253
ACAATGGG | 0.196

Sequence | PBM E-score
GCGCTCAC | -0.117
CGTCTGTA | 0.0585
AGTATAAA | 0.203
CCCGACAA | 0.329
TACCGGAA | 0.198
CTCGGTAC | 0.0483
CCCGCGTA | -0.123
CTAGGACC | -0.0875
AGTAGAGA | -0.0748
GCGACTCA | -0.154
GGAACAAA | 0.274
GAAAATTA | 0.0395
CAGGCTCG | -0.0345
TCACGTGA | 0.203
CTAACTAC | -0.0627
GTCCCAAA | 0.266
CATTTGAC | 0.0237
GTAGGACA | 0.479
CCGACGGA | 0.00794
ACGGCAAT | 0.216
CTTGAGCA | -0.157
GCTTACTA | -0.184
ACAACGGG | 0.161
AGAATCAC | -0.0955
CCACGTCG | -0.041

Sequence | PBM E-score
CCAGGCTA | -0.295
CGACTAGA | -0.117
ACTCACCG | -0.0883
CTCGTGCA | -0.109
CGGAATCC | -0.039
AATCCATA | 0.0862
CGCGATAC | -0.0393
CGTAGGAC | 0.132
CCTTTCTA | 0.0109
GACACAAA | 0.395
ACCAGGAC | 0.329
ACAAGAAA | 0.197
AGAATGAG | 0.0238
AGGCGAGA | -0.196
CGTTGACC | -0.00754
CAGCTGGC | -0.125
CCAATGGA | -0.0809
GAAGCATC | -0.28
CTGGAACC | -0.181
AGTCAGAT | 0.113
AACCAGCT | 0.138
CTTAACGC | -0.0673
ACCCCAGG | -0.231
AGGCTATG | -0.204
GAGTTAAC | -0.0585

Sequence | PBM E-score
CCAGGCGC | -0.147
CGTGATTA | 0.073
ACGACGAC | -0.107
CAGTGCGC | -0.153
ATGTGTAA | 0.0748
GCTCGTCC | 0.133
GAACATCA | -0.0434
GCCCTATA | -0.0935
ATCCGGCC | -0.0763
CTTGACAC | -0.143
ACGTGCGC | 0.0162
TAAAAAGA | 0.114
TTCCCAAA | 0.0993
CAACGCCA | -0.171
CATGCTGA | -0.00885
CATACTGG | 0.055
GTTCTGTA | 0.0648
ATACGAGC | 0.0618
AGAACATA | 0.167
ACTTCAGG | 0.00294
AAGGAACG | -0.0472
ATCATACG | 0.112
AGCCGCCG | -0.0663
ATACTGAA | -0.0679
AACACCTG | 0.0646

Sequence | PBM E-score
CTCACGAC | -0.0565
CCCAAAAG | 0.0389
AAGGCTGG | -0.253
AGTGGAGA | -0.029
ATAGGGGG | -0.358
ATAGTGGC | -0.0472
TACGCGCA | 0.0872
AATACTCA | 0.175
ACGACAGT | -0.047
GTCCCAGA | 0.0675
AGTCTGGC | -0.139
CGAACATC | 0.13
CCTCAGAG | -0.291
CCCGTGCA | -0.3
AGGTGTGC | -0.223
ACATTATG | 0.282
AGCCTTAG | -0.0844
GATTGAAA | 0.149
CTAGTATC | 0.0387
ACATGTTA | 0.199
AACATACT | 0.00863
CATAAGCA | -0.0443
TAACACCA | 0.021
CGACGCTA | -0.0168
CTATATGC | 0.0574

Sequence | PBM E-score
CCGATAAG | 0.108
GATCTAGC | -0.225
AGCCGAGG | 0.103
AATTTGAA | 0.0911
TCTCGAGA | 0.259
AGATCAAT | -0.0557
AGGTCTAT | -0.0519
GCTTATAA | -0.0204
ACCGCAGA | -0.183
GGTGAAAC | 0.00076
AGTAAGAC | 0.085
GTACGAGA | 0.132
TCAGATCA | 0.0578
ACATGACC | 0.0733
CTTTTATC | 0.0809
GAAACTCC | -0.249
ATTTCGAA | 0.204
CTTGTCCC | 0.47
CAGGCGAC | -0.0799
AATGCTAA | 0.0423
AGCAAAGG | -0.0218
GGCGATTA | -0.0902
AGTGTGGG | -0.193
GGTTAAGA | 0.0564
ACGCAGAG | 0.0356

Sequence | PBM E-score
GCCGTCGC | -0.0331
CTATCTGA | -0.12
CGATTTCC | 0.0472
CAGGTCAC | -0.313
TAATCTGA | -0.0016
ACGCTTTA | -0.013
CCCACCGA | -0.265
GGCAGATA | -0.149
ACGCTAAG | -0.0746
GGACAGGA | 0.299
ATCACGAT | -0.118
GTAGTACA | 0.167
GTGTGAAA | 0.212
ATCGAAGG | -0.0113
GTCCCACA | 0.319
AGTAACTC | -0.00301
AACTTGAG | -0.212
ATGTGCTA | -0.0878
CGACCATC | -0.232
CATCCACA | 0.129
CGGTATTC | 0.101
CCAGATAG | -0.057
